{
  "source": "the supplement of paper PMC8728848",
  "assay_in_all_cases": "glycan array binding signal (z-score within array); higher = stronger binding",
  "conditions_in_all_cases": "glycan notation: IUPAC condensed, linker removed",
  "key": {"Fuc(a1-2)Gal": {"target": "Fuc(a1-2)Gal", "outline": "(§1)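 Glycan array data came from 3228 arrays in the Consortium for Functional Glycomics database, and only arrays with an available protein sequence were kept. Glycan names were put into IUPAC-condensed notation, and columns mapping to the same glycan were averaged. The binding signal is a within-array Z-score, averaged across arrays of one protein sequence run at different concentrations or buffers and across linkers. A negative Z-score can be read as non-binding.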"}, "Fuc(a1-2)Gal(b1-3)GalNAc": {"target": "Fuc(a1-2)Gal(b1-3)GalNAc", "outline": "as §1"}, "[1]": {"target": "Fuc(a1-2)Gal(b1-3)GalNAc(a1-3)[Fuc(a1-2)]Gal(b1-4)Glc", "outline": "as §1"}, "[2]": {"target": "Fuc(a1-2)Gal(b1-3)GalNAc(a1-3)[Fuc(a1-2)]Gal(b1-4)GlcNAc", "outline": "as §1"}, "[3]": {"target": "Fuc(a1-2)Gal(b1-3)GalNAc(b1-3)Gal", "outline": "as §1"}, "[4]": {"target": "Fuc(a1-2)Gal(b1-3)GalNAc(b1-3)Gal(a1-4)Gal(b1-4)Glc", "outline": "as §1"}, "[5]": {"target": "Fuc(a1-2)Gal(b1-3)GalNAc(b1-4)[Neu5Ac(a2-3)]Gal(b1-4)Glc", "outline": "as §1"}, "Fuc(a1-2)Gal(b1-3)GlcNAc": {"target": "Fuc(a1-2)Gal(b1-3)GlcNAc", "outline": "as §1"}, "[6]": {"target": "Fuc(a1-2)Gal(b1-3)GlcNAc(b1-2)Man(a1-3)[Fuc(a1-2)Gal(b1-3)GlcNAc(b1-2)Man(a1-6)]Man(b1-4)GlcNAc(b1-4)GlcNAc", "outline": "as §1"}, "[7]": {"target": "Fuc(a1-2)Gal(b1-3)GlcNAc(b1-2)Man(a1-3)[Fuc(a1-2)Gal(b1-3)GlcNAc(b1-2)Man(a1-6)]Man(b1-4)GlcNAc(b1-4)[Fuc(a1-6)]GlcNAc", "outline": "as §1"}, "[8]": {"target": "Fuc(a1-2)Gal(b1-3)GlcNAc(b1-3)Gal(b1-4)Glc", "outline": "as §1"}, "[9]": {"target": "Fuc(a1-2)Gal(b1-3)GlcNAc(b1-3)GalNAc", "outline": "as §1"}, "[10]": {"target": "Fuc(a1-2)Gal(b1-3)GlcNAc(b1-3)[Fuc(a1-2)Gal(b1-3)GlcNAc(b1-6)]GalNAc", "outline": "as §1"}, "[11]": {"target": "Fuc(a1-2)Gal(b1-3)GlcNAc(b1-3)[Gal(b1-4)GlcNAc(b1-6)]Gal(b1-4)Glc", "outline": "as §1"}, "[12]": {"target": "Fuc(a1-2)Gal(b1-3)GlcNAc(b1-3)[Neu5Ac(a2-6)Gal(b1-4)GlcNAc(b1-6)]Gal(b1-4)Glc", "outline": "as §1"}, "[13]": {"target": "Fuc(a1-2)Gal(b1-3)GlcNAc6S", "outline": "as §1"}, "[14]": {"target": "Fuc(a1-2)Gal(b1-3)[Fuc(a1-4)]GlcNAc", "outline": "as §1"}, "[15]": {"target": "Fuc(a1-2)Gal(b1-3)[Fuc(a1-4)]GlcNAc(b1-2)Man(a1-3)[Fuc(a1-2)Gal(b1-3)[Fuc(a1-4)]GlcNAc(b1-2)Man(a1-3)]Man(b1-4)GlcNAc(b1-4)GlcNAc", "outline": "as §1"}, "[16]": {"target": "Fuc(a1-2)Gal(b1-3)[Fuc(a1-4)]GlcNAc(b1-2)Man(a1-3)[Fuc(a1-2)Gal(b1-3)[Fuc(a1-4)]GlcNAc(b1-2)Man(a1-6)]Man(b1-4)GlcNAc(b1-4)[Fuc(a1-6)]GlcNAc(b1-4)[Fuc(a1-6)]GlcNAc", "outline": "as §1"}, "[17]": {"target": "Fuc(a1-2)Gal(b1-3)[Fuc(a1-4)]GlcNAc(b1-3)[Fuc(a1-3)[Gal(b1-4)]GlcNAc(b1-6)]Gal(b1-4)Glc", "outline": "as §1"}, "[18]": {"target": "Fuc(a1-2)Gal(b1-3)[Fuc(a1-4)]GlcNAc(b1-3)[Gal(b1-4)GlcNAc(b1-6)]Gal(b1-4)Glc", "outline": "as §1"}, "[19]": {"target": "Fuc(a1-2)Gal(b1-4)Fuc(a1-3)]GlcNAc(b1-2)Man(a1-3)[Fuc(a1-2)Gal(b1-4)[Fuc(a1-3)]GlcNAc(b1-2)Man(a1-6)]Man(b1-4)GlcNAc(b1-4)GlcNAc", "outline": "as §1"}, "Fuc(a1-2)Gal(b1-4)Glc": {"target": "Fuc(a1-2)Gal(b1-4)Glc", "outline": "as §1"}, "Fuc(a1-2)Gal(b1-4)Glc6S": {"target": "Fuc(a1-2)Gal(b1-4)Glc6S", "outline": "as §1"}, "Fuc(a1-2)Gal(b1-4)GlcNAc": {"target": "Fuc(a1-2)Gal(b1-4)GlcNAc", "outline": "as §1"}, "[20]": {"target": "Fuc(a1-2)Gal(b1-4)GlcNAc(b1-2)Man", "outline": "as §1"}, "[21]": {"target": "Fuc(a1-2)Gal(b1-4)GlcNAc(b1-2)Man(a1-3)[Fuc(a1-2)Gal(b1-4)GlcNAc(b1-2)Man(a1-6)]Man(b1-4)GlcNAc(b1-4)GlcNAc", "outline": "as §1"}, "[22]": {"target": "Fuc(a1-2)Gal(b1-4)GlcNAc(b1-2)Man(a1-3)[Fuc(a1-2)Gal(b1-4)GlcNAc(b1-2)Man(a1-6)]Man(b1-4)GlcNAc(b1-4)[Fuc(a1-6)]GlcNAc", "outline": "as §1"}, "[23]": {"target": "Fuc(a1-2)Gal(b1-4)GlcNAc(b1-2)[Fuc(a1-2)Gal(b1-4)GlcNAc(b1-4)]Man(a1-3)[Fuc(a1-2)Gal(b1-4)GlcNAc(b1-2)Man(a1-6)]Man(b1-4)GlcNAc(b1-4)GlcNAc", "outline": "as §1"}, "[24]": {"target": "Fuc(a1-2)Gal(b1-4)GlcNAc(b1-3)Gal(b1-4)GlcNAc", "outline": "as §1"}},
  "note": "Some of the results follow.",
  "data": [
    {"binder": "ECA (Erythrina cristagalli), P83410 (protein) VETISFSFSEFEPGNDNLTLQGAALITQSGVLQLTKINQNGMPAWDSTGRTLYTKPVHMWDSTTGTVASFETRFSFSIEQPYTRPLPADGLVFFMGPTKSKPAQGYGYLGVFNNSKQDNSYQTLAVEFDTFSNPWDPPQVPHIGIDVNSIRSIKTQPFQLDNGQVANVVIKYDAPSKILHVVLVYPSSGAIYTIAEIVDVKQVLPDWVDVGLSGATGAQRDAAETHDVYSWSFQASLPE", "values": [
      {"measurement": "glycan array binding signal (z-score)", "setting": "Fuc(a1-2)Gal", "value": -0.291},
      {"measurement": "glycan array binding signal (z-score)", "setting": "Fuc(a1-2)Gal(b1-3)GalNAc", "value": -0.261},
      {"measurement": "glycan array binding signal (z-score)", "setting": "[1]", "value": -0.468},
      {"measurement": "glycan array binding signal (z-score)", "setting": "[2]", "value": -0.261},
      {"measurement": "glycan array binding signal (z-score)", "setting": "[3]", "value": -0.263},
      {"measurement": "glycan array binding signal (z-score)", "setting": "[4]", "value": -0.125},
      {"measurement": "glycan array binding signal (z-score)", "setting": "[5]", "value": -0.248},
      {"measurement": "glycan array binding signal (z-score)", "setting": "Fuc(a1-2)Gal(b1-3)GlcNAc", "value": -0.164},
      {"measurement": "glycan array binding signal (z-score)", "setting": "[6]", "value": 0.535},
      {"measurement": "glycan array binding signal (z-score)", "setting": "[7]", "value": 0.521},
      {"measurement": "glycan array binding signal (z-score)", "setting": "[8]", "value": -0.36},
      {"measurement": "glycan array binding signal (z-score)", "setting": "[9]", "value": -0.299},
      {"measurement": "glycan array binding signal (z-score)", "setting": "[10]", "value": 0.223},
      {"measurement": "glycan array binding signal (z-score)", "setting": "[11]", "value": -0.111},
      {"measurement": "glycan array binding signal (z-score)", "setting": "[12]", "value": -0.165},
      {"measurement": "glycan array binding signal (z-score)", "setting": "[13]", "value": -0.278},
      {"measurement": "glycan array binding signal (z-score)", "setting": "[14]", "value": -0.348},
      {"measurement": "glycan array binding signal (z-score)", "setting": "[15]", "value": 0.247},
      {"measurement": "glycan array binding signal (z-score)", "setting": "[16]", "value": 0.449},
      {"measurement": "glycan array binding signal (z-score)", "setting": "[17]", "value": -0.443},
      {"measurement": "glycan array binding signal (z-score)", "setting": "[18]", "value": -0.309},
      {"measurement": "glycan array binding signal (z-score)", "setting": "[19]", "value": 0.164},
      {"measurement": "glycan array binding signal (z-score)", "setting": "Fuc(a1-2)Gal(b1-4)Glc", "value": -0.242},
      {"measurement": "glycan array binding signal (z-score)", "setting": "Fuc(a1-2)Gal(b1-4)Glc6S", "value": 0.055},
      {"measurement": "glycan array binding signal (z-score)", "setting": "Fuc(a1-2)Gal(b1-4)GlcNAc", "value": 0.832},
      {"measurement": "glycan array binding signal (z-score)", "setting": "[20]", "value": -0.034},
      {"measurement": "glycan array binding signal (z-score)", "setting": "[21]", "value": 0.791},
      {"measurement": "glycan array binding signal (z-score)", "setting": "[22]", "value": 0.262},
      {"measurement": "glycan array binding signal (z-score)", "setting": "[23]", "value": 0.53},
      {"measurement": "glycan array binding signal (z-score)", "setting": "[24]", "value": 1.56}
    ]}
  ]
}
